Measurements taken from publication PMC12136788.
Where a chain is given by its changes, count along the chain named. The list shows a part of the results.

B1: chr9:132328913:132329014:-|CDS|ENSG00000107290|msi1|FALSE|bound_elsewhere (ssRNA)
RNA: GGGAGUUCUACAGUCCGACGAUCAGAACAAAAAUCUCAAAACAAUGUAUUGCCAAAAGAGAAACAAUUAAAGAAUGAAGAAUUAGUUAUUUUCUCUUUCCAUGAAAACAAUUGUAAAAUACAGGAAUUUCAUGUUGAUGGUAACAACAGAGGAUUGAGCAUCA
B2: chr3:15690066:15690176:-|CDS|ENSG00000206560|unk|FALSE|bound_elsewhere (ssRNA)
RNA: GGGAGUUCUACAGUCCGACGAUCAGUGUUGGUACAGUCUUUGUUAGAUCUUGAUGUCAGAAAUAGUAGUGGAAGAACACCCCUAGAUCUUGCAGCUUUUAAGGGCCAUGUUGAAUGUGUGGAUGUACUCAUUAAUCAGGGAGCCAACAGAGGAUUGAGCAUCA
B3: chr1:68475836:68475940:-|3pUTR|ENSG00000024526|unk|total|mutant (ssRNA)
RNA: GGGAGUUCUACAGUCCGACGAUCAUGCCCAGGGCCUAACUUACACUAAUUAAAUCUGAAUUUUGGGGAUGUUGUACCGGGAUCCGUAUUUUUUUUAAUCCCGGUGAUUCCAAUAUUCAGCCAACUGUGAGAAUCAAUGGCCUACAACAGAGGAUUGAGCAUCA
B4: chr5:132696315:132696416:-|3pUTR|ENSG00000131437|msi1|total|mutant (ssRNA)
RNA: GGGAGUUCUACAGUCCGACGAUCGUUGUACUACUACUCUUCAAUUGUACUGUGCAGGGAAGUUGGGGGAACAGUUCAUACUACCGAGAGUUACAGUUCCGAUGUAUGUGUAAAUCGAUCCGCUAUUUAUCCAACUACUGUAUACAACAGAGGAUUGAGCAUCA
B5: chr2:108783740:108783841:+|CDS_3pUTR|ENSG00000153201|msi1_unk|total|mutant (ssRNA)
RNA: GGGAGUUCUACAGUCCGACGAUCCAAUAAUUCUCAAUUUGUUAUAACACUGAAGAAAGCAGAACAUUUGGACUUUAAGCAUGCCGUAUUUGGGUUUGUUAAGGAUGGCAUGGAUACUGUGAAAAAGAUUGAAUCAUUUGGUUCCAACAGAGGAUUGAGCAUCA
B6: chr10:62094764:62094865:+|3pUTR|ENSG00000150347|msi1|FALSE|unique (ssRNA)
RNA: GGGAGUUCUACAGUCCGACGAUCGAUGAACUCCCCAACCCACUGUGCCCCUCCCGCAACACUACCAGUAGACUUUAGAACCAUAGUUAACUAAGUCUUUUACCUCUGAGAUACUUAAUUCUGGGAAAAUUGGUGACAAUUUUCCAACAGAGGAUUGAGCAUCA
B7: chr9:128583791:128583907:+|CDS|ENSG00000197694|unk|total|mutant (ssRNA)
RNA: GGGAGUUCUACAGUCCGACGAUCCAACCAGCAACAGCAAUUUAAUCGCAAUGUUGAGGAUAUUGAAUUGUGGCUAUAUGAAGCCGAAGGUCACUUGGCUUCGGAUGAUUACGGCAAAGAUCUUACCAAUGUGCAGAACCUCCACAACAGAGGAUUGAGCAUCA
B8: chr20:4853394:4853498:-|3pUTR|ENSG00000089057|unk|total|mutant (ssRNA)
RNA: GGGAGUUCUACAGUCCGACGAUCUAUGACCAUGAGCUAAGUUGUUAUUUCUUUCAUUCAUAUCCCUGCUGAAAUAUUGGUACCCGCAACUUAAAGUUGGCAAGUCUCAUCUUCAGUAAUACGGAUGCCAUGGGAGUGGCCAGGCAACAGAGGAUUGAGCAUCA
B9: chr20:13714314:13714426:-|3pUTR|ENSG00000089048|unk|FALSE|unique (ssRNA)
RNA: GGGAGUUCUACAGUCCGACGAUCUUUUUCUAGCCAUAAAGGAUGGAAGUCAAGAACUUUUUGUUGUUUAGUCAUGUUAAGUAUAGUUUAUGAAAUUAACUUGUAAAUAAAAGUGUAAAAUAUUUUCAUUAUUUUGUAUAGCACCAACAGAGGAUUGAGCAUCA
B10: chr9:132328913:132329014:-|CDS|ENSG00000107290|msi1|total|mutant (ssRNA)
RNA: B1 RNA with U83C, A84C
B11: ENSG00000198589:be:win_7251|CDS|ENSG00000198589|bound_else_gene|NA|bound_elsewhere_windowed (ssRNA)
RNA: GGGAGUUCUACAGUCCGACGAUCUGGCUAUAAACAGCAAGGACCAGAAGCUGUCCGAGCCCUCAAUGUGUUCUAUUACUUGACCUAUGAAGGAGCUGUCAAUCUGAAUUCAAUAACUGAUCCUGUGUUGAGAGAGGCUGUUGACAACAGAGGAUUGAGCAUCA
B12: chr16:58551611:58551719:-|CDS|ENSG00000125107|unk|total|mutant (ssRNA)
RNA: GGGAGUUCUACAGUCCGACGAUCCUGGCUCAGGCCCAGGCUCAGGCCCAGGUUCCAGCAAAAGCUCCUCUUGCUGGUCAAGUCCGCACUAUGGUAACCACCUCAACAACUACCACUGUUGCUAAAACGGUUACGGUCACCAGGCAACAGAGGAUUGAGCAUCA
B13: chr20:56369402:56369507:-|3pUTR|ENSG00000087586|unk|FALSE|unique (ssRNA)
RNA: GGGAGUUCUACAGUCCGACGAUCAGAAGAGGCCAUGUGUCUCAGAGCUGUUAAGGGCUUAUUUUUUUAAAACAUUGGAGUCAUAGCAUGUGUGUAAACUUUAAAUAUGCAAAUAAAUAAGUAUCUAUGUCUGUGUGGAGUGCUCAACAGAGGAUUGAGCAUCA
B14: chr22:46316300:46316401:+|CDS|ENSG00000075218|unk|FALSE|unique (ssRNA)
RNA: GGGAGUUCUACAGUCCGACGAUCGGCGGCCAGUGGCUGAACUCCAGUUGCGCUUGGUCAGAAUCUUCUCAAUUGAAUAAGACUAGAAGUAUCAGACGGCGAGAUUCCUGUCUAAAUUCCAAGACAAAGGUUAUGCCUACUCCUCAACAGAGGAUUGAGCAUCA
B15: chrX:53645320:53645442:-|CDS|ENSG00000086758|unk|FALSE|unique (ssRNA)
RNA: GGGAGUUCUACAGUCCGACGAUCUUAUUGGCUUCCUCUGAUAUGCAAGUGGUGCUGGCAGUCCUCAAUCUCCUAUAUGUAUUUAGCAAAAGAUCAAACUACAUCACUCGUCUGGGAUCUGACAAGAGGACCCCGCUGCUAACUCAACAGAGGAUUGAGCAUCA
B16: chr16:1487315:1487970:-|CDS|ENSG00000251692|control|control|control (ssRNA)
RNA: GGGAGUUCUACAGUCCGACGAUCGGGGGAGCUGGCGCAGCUCAAGGCCUGGGUGAGGAAGCUGCAGCGCCGAGGCCGGAAAGUAGACACGCGGCUGCGGGCCUUGGACCUCACCCUGGGCGAGAGGAGCCAGCAGCGGGCCCGCAACAGAGGAUUGAGCAUCA
B17: chr9:37126384:37126485:+|CDS|ENSG00000147905|unk|total|mutant (ssRNA)
RNA: GGGAGUUCUACAGUCCGACGAUCUAUCGAGAUGAGUCAUCCCGUGAACUGAGUGUUGACCGUGAGGUGGAAUUUCAACUCUACCGCCAAAUUCAUUAUGCCCAAGAUCUUGAUGAUGUCAUCAGGGAGGAAGAGCAUGAAGAACAACAGAGGAUUGAGCAUCA
B18: ENSG00000198589:be:win_7501|CDS|ENSG00000198589|bound_else_gene|NA|bound_elsewhere_windowed (ssRNA)
RNA: GGGAGUUCUACAGUCCGACGAUCCUCAAGUUUCCCUCCAACUCCCCUGUUACUCACGUGGCAGCCAACACCCAGCCUGGUUUGGCAACUCCCGCUGUGAUCACAGUCACUGCUAACAGGUUAUUUGCGGUGAACAAAUGGCACCAACAGAGGAUUGAGCAUCA
B19: ENSG00000147421:stop:overlap|stop_codon|ENSG00000147421|stop_codon|NA|stop_codon (ssRNA)
RNA: GGGAGUUCUACAGUCCGACGAUCACACUUGGUCCCCUGAGAGAAGGAUGGAAGAAAAUAAAUGGAAGUUGCUUUCUGCAGGGUAGGAGAUUGGCUGGACAGUUACUUCAAUGAGAAUCAAUACCCAGAUGAAGCAAAGAGGGACAACAGAGGAUUGAGCAUCA
B20: chr17:73284618:73284719:-|3pUTR|ENSG00000179604|msi1|FALSE|unique (ssRNA)
RNA: GGGAGUUCUACAGUCCGACGAUCGGGCACUCGCUCAGUCCCUAGGGGCUUGUUUGUUCUUUAUUAUUGUGUUUAAAUCCUUAUAGAGCAAUAUCAGGAUGGUGUUAAUAGGUCUGCCUCAGAAUGAGAAUCAAUCCUUUUAGACAACAGAGGAUUGAGCAUCA
B21: ENSG00000071189:stop:overlap|stop_codon|ENSG00000071189|stop_codon|NA|stop_codon (ssRNA)
RNA: GGGAGUUCUACAGUCCGACGAUCUUGGACCCUUUGUAAUAUUUUAUUUGACAUUUUAUAUCCUCUGCUUUGUGGGUGGUGCUUAGAAGAAAUGAAACGGGAAGCCAGGACUAUUAAGAUUGAUAGAAGAUUGACGGGUGCCAACAACAGAGGAUUGAGCAUCA
B22: chr5:74627411:74627511:-|3pUTR|ENSG00000171617|msi1_unk|total|mutant (ssRNA)
RNA: GGGAGUUCUACAGUCCGACGAUCUUUGUAAAACUGUUAUUUUUUUUUUUUUCACAAUGUGAAACUGAAGGUCAAUAAAUUAUCCGAGAUUUUCUCUUCAUUAUGUGUGUGGGUCUUCAUUUGAAUAAGACACAAUUUGAGGCACAACAGAGGAUUGAGCAUCA

Target: MSI1 full-length (mouse, UniProt Q61474 1-362)
Test: nsRBNS (natural sequence RNA bind-n-seq); RBNS binding buffer (assumed for nsRBNS): 25 mM Tris pH 7.5, 150 mM KCl, 3 mM MgCl2, 0.01% Triton X-100, 500 ug/ml BSA, 20 U/ml SUPERase-In, 4 C; UNK is unkempt and MSI1 is Musashi-1; names of the RNAs are library labels; protein concentration not given here; high values mean tight binding

UniProt Q61474, sequence (Q61474 whole entry): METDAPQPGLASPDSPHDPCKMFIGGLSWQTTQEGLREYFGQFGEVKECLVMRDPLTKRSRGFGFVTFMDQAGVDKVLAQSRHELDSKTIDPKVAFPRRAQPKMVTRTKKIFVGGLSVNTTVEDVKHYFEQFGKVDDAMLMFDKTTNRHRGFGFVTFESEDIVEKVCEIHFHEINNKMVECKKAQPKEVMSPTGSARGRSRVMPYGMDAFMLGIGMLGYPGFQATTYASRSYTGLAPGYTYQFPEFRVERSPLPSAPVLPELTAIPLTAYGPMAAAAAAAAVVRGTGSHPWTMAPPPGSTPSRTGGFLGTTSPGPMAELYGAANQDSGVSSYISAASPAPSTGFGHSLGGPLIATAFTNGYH

Row | Binder | binding signal
1 | B1 | 0.569 enrichment R
2 | B2 | 3.89 enrichment R
3 | B3 | 0.518 enrichment R
4 | B4 | 0.609 enrichment R
5 | B5 | 0.437 enrichment R
6 | B6 | 12.5 enrichment R
7 | B7 | 0.336 enrichment R
8 | B8 | 0.255 enrichment R
9 | B9 | 58.4 enrichment R
10 | B10 | 0.436 enrichment R
11 | B11 | 0.339 enrichment R
12 | B12 | 0.322 enrichment R
13 | B13 | 0.371 enrichment R
14 | B14 | 0.624 enrichment R
15 | B15 | 1.91 enrichment R
16 | B16 | 0.446 enrichment R
17 | B17 | 0.245 enrichment R
18 | B18 | 0.448 enrichment R
19 | B19 | 0.34 enrichment R
20 | B20 | 3.7 enrichment R
21 | B21 | 0.545 enrichment R
22 | B22 | 0.282 enrichment R
